Assay results as given in PubChem BioAssay AID651820 (National Center for Advancing Translational Sciences (NCATS), 2012).
Screen size: about 340,000 compounds; about 12,000 (3.5%) were called active. Inconclusive results, whose numbers are uncertain, are shown with a selection of clear calls. The call rests on the fitted dose curve; in most records, active means well fitted inhibition curve with a large enough effect; inconclusive means small, poorly fitted or top-dose-only effect, or another doubt; inactive means no such curve, though single readings can be large or run the other way. No potency is given beside an inconclusive call; the fits are too rough.

Test: qHTS Assay for Inhibitors of Hepatitis C Virus (HCV)
Settings: Huh7.5.1 HCVcc-Cre (HCVcc is cell-culture hepatitis C virus) infection, luciferase reporter, 44 h; series mostly up to 41.8 µM
How it was run: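 Infectious HCVcc-Cre (~0.5 moi) was added to cells just after compound, with cells seeded 4 h earlier at 1,000 per well. Luciferase activity after 44 h culture reported infection; substrate was incubated 15 min at room temperature before reading.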
Potency means the concentration at half of the fitted maximal effect; tags describe the fitted curve by direction and shape.

SMILES | Potency
CC(=O)Nc1ccc(SCC(=O)c2cc(C)n(CC(F)(F)F)c2C)cc1 | inactive
COc1cc(CCC(=O)Nc2sccc2C#N)cc(OC)c1OC | inconclusive [inhibitor, partial curve]
Cc1ccc(Nc2c(-c3ccccn3)nc3ccc(C)cn23)cc1 | inconclusive [inhibitor, full curve]
CN1CCN(/C=C2\SC(=S)NC2=O)CC1 | inactive
CCOC(=O)c1sc(NC(=O)c2ccc(Cl)s2)cc1C | inconclusive [inhibitor, single point]
O=S(=O)(Nc1ccc(Cc2ccncc2)cc1)c1cccs1 | inconclusive [inhibitor, single point]
COc1cc(NC(=S)NCc2cccs2)cc(OC)c1 | inconclusive [inhibitor, single point]
COc1cc(/C=N/Nc2ccc(S(N)(=O)=O)cc2)cc(OC)c1OC | active: 10 µM
CCOC(=O)c1ccc(NC(=O)c2nn(CC)cc2Br)cc1 | inconclusive [inhibitor, partial curve]
C=C(C)CN(CC)C(=O)CC1C(=O)NCCN1CC(C)(C)C (stereo unspecified) | inactive
C=C(CCC(=O)c1ccccc1)C(=O)c1ccccc1 | inconclusive [inhibitor, single point]
N#CC(c1ccc(F)cc1)c1ccc(C(=O)c2ccc(F)cc2)cc1 (stereo unspecified) | inconclusive [inhibitor, partial curve]
O=C(CN1C(=O)NC2(CCCCC2)C1=O)Nc1ccccc1N1CCCCC1 | inactive
Cc1ccc(Oc2cc(NN3CCCCC3)c([N+](=O)[O-])cc2[N+](=O)[O-])c([N+](=O)[O-])c1 | inactive
COc1ccc(C(=O)NC(=S)NNC(=O)c2c(-c3ccccc3)noc2C)cc1OC | inconclusive [inhibitor, single point]
CO/N=C/C(C#N)=C/c1cc(C(=O)c2ccc(F)cc2)cn1C | inconclusive [inhibitor, partial curve]
CN(CC(=O)NCCc1ccc(S(N)(=O)=O)cc1)CC(=O)Nc1ccc(Cl)cc1 | inconclusive [inhibitor, single point]
CC(=O)C(C)Oc1ccc2c3c(c(=O)oc2c1)CCCC3 (stereo unspecified) | inconclusive [inhibitor, single point]
CCCCCCC[C@@H](C/C=C/CCC(=O)N(C)C/C(=C/Cl)C/C(=C\C(=O)N1C[C@H](O)CC1=O)OC)OC | inconclusive [inhibitor, single point]
O=C(Cn1cnc2ccccc21)Nc1cccc([N+](=O)[O-])c1 | inconclusive [inhibitor, single point]
C=CCn1c(=N)n(CC(O)COc2ccc(OC)cc2)c2ccccc21 (stereo unspecified) | active: 5.62 µM
CCCCCn1c(=O)c(C(=O)NCc2ccc(Cl)cc2)c(O)c2ccccc21 | inconclusive [inhibitor, partial curve]
Oc1cc2ccccc2cc1-c1n[nH]c(=S)o1 | inactive
O=C(Nc1ccc(N2CCOCC2)cc1)c1cc2ccccc2o1 | inconclusive [inhibitor, partial curve]

SMILES | Potency
O=C1c2ccccc2C(=O)c2c(Nc3ccc(CCO)cc3)ccc(O)c21 | inconclusive [inhibitor, single point]
Nc1nc(SCC(=O)N2CCN(c3ccc(F)cc3)CC2)n[nH]1 | inactive
CC1=Nc2ccc(C)cc2/C1=C/c1c(N)n2oc(C)cc2nc1=O | inconclusive [inhibitor, partial curve, poor fit]
Nc1nc2ccc([N+](=O)[O-])c(N)c2s1 | inconclusive [inhibitor, partial curve, poor fit]
Cc1cc(C(F)F)n2ncc(C(=O)NCc3ccccc3)c2n1 | inconclusive [inhibitor, partial curve]
N#Cc1ccccc1/C=N/Nc1nc(-c2ccccc2)c2cc(Cl)ccc2n1 | inconclusive [inhibitor, partial curve]
COc1cccc(OC)c1C1=NC(C)(C)CO1 | inactive
CCCN(CCC)C(C(=O)Nc1cccc(OC)c1)c1ccccc1 (stereo unspecified) | inconclusive [inhibitor, single point]
Nc1nc(Cl)cc(N2CCC(c3cc(-c4ccc(Cl)cc4Cl)n[nH]3)CC2)n1 | active: 22.4 µM
COc1cccc(C(=O)COC(=O)c2cccs2)c1 | inactive
CCCCNc1ccc(C(=O)Nc2cccc(C)n2)cc1[N+](=O)[O-] | inconclusive [inhibitor, partial curve]
COC(=O)CCC(=O)c1oc2ccccc2c1NC(=O)CCCN1C(=O)c2ccccc2C1=O | inactive
COc1ccc(NC(=O)CN2CCN(c3ccc(C)cc3C)CC2)cc1 | inconclusive [inhibitor, partial curve]
Cc1cc(C(=O)N/N=C/c2ccc(-c3ccc([N+](=O)[O-])cc3C)o2)n[nH]1 | inconclusive [inhibitor, single point]
Cc1nc2c(-c3ccc(F)cc3)c(C)nn2c(C)c1CCC(=O)N1CCOCC1 | inactive
CCN(CC)S(=O)(=O)c1cccc(C(=O)Nc2ccc(Cl)cn2)c1 | active: 3.55 µM
COc1ccc(N2CCN(C(=O)COC(=O)c3ccc(CSC)o3)CC2)cc1 | inconclusive [inhibitor, single point]
Cc1ccc(NC(=O)CN(C)C(=O)c2cc(S(=O)(=O)N(C)C)ccc2N2CCCC2)cc1 | inactive
CCOC(=O)C1=C(C)NC(=S)NC1/C=C/c1ccccc1 (stereo unspecified) | inconclusive [inhibitor, partial curve]
CC(c1ccc(O)cc1)(c1ccc(O)cc1)c1ccc(CCBr)cc1 | inconclusive [inhibitor, single point]
CCOC(=O)c1c(C)nc2sc3c(=O)n(-c4ccc(OC)cc4)cnc3c2c1-c1ccc(OC)cc1 | inactive
Cc1nc(N2CCN(Cc3ccccc3)CC2)nc2c1CCC2 | inconclusive [inhibitor, single point]
O=C(NCc1ccccc1Cl)c1cnc2ccccc2n1 | inconclusive [inhibitor, partial curve]
CC(C)(C)c1cc[n+](C2=C([O-])c3ccccc3C(=O)/C2=N\S(=O)(=O)c2ccccc2)cc1 | inactive

SMILES | Potency
COc1ccc(-c2csc(NC(=O)CCCc3nc4ccccc4c(=O)[nH]3)n2)cc1OC | inconclusive [inhibitor, full curve]
Cc1cc(Cl)ccc1OCC(=O)Nc1cccc(S(=O)(=O)N2CCCC2)c1 | active: 7.94 µM
CCCc1ccc(OCc2ccc(C(=O)N3CCN(c4ccccn4)CC3)o2)c(OC)c1 | inconclusive [inhibitor, partial curve]
O=C(Nc1nc2cc3c(cc2s1)OCO3)c1ccc(N2C(=O)CCC2=O)cc1 | inconclusive [inhibitor, single point]
Cc1ccc(Cn2cnc3ccccc32)cc1 | inconclusive [inhibitor, partial curve]
O=C(Nc1ccc(SC(F)F)cc1)c1ccc2c(=O)n3c(nc2c1)CCC3 | active: 3.98 µM
CC(C)CCN(CCC(C)C)CC(O)Cn1c2ccccc2c(=O)c2ccccc21 (stereo unspecified) | inconclusive [inhibitor, full curve]
Cc1ccsc1/C=N/N1CCN(c2ccccc2)CC1 | inactive
CC(C)(CNC(=O)c1sc2cc(F)ccc2c1Cl)N1CCOCC1 | active: 11.2 µM
CCCCOc1ccc(N(CC(=O)NC2CCCCC2)C(=O)CCC(=O)Nc2ccccn2)cc1 | inconclusive [inhibitor, partial curve]
CNC(=O)c1cccc(NC(=O)c2cc(-c3ccccc3)nc3c2cnn3C(C)C)c1 | active: 3.16 µM
OCC1(Cc2ccccc2)CCN(C2CCN(c3ccc(F)c(F)c3)CC2)CC1 | inconclusive [inhibitor, single point]
Cc1ccc(OCc2nnc(SCc3ccc(C#N)cc3)n2-c2ccc(C)cc2)cc1 | inconclusive [inhibitor, partial curve]
COc1cccc(NC(=O)CN(C)C(=O)c2ccc(NC3CC3)c([N+](=O)[O-])c2)c1 | inactive
CCOc1ccc(S(=O)(=O)n2cnc3cc(C)c(C)cc32)cc1 | active: 10 µM
Cc1ccc(S(=O)(=O)c2cc3c(=O)n4ccccc4nc3n(Cc3ccco3)c2=N)cc1C | inconclusive [inhibitor, full curve]
COc1ccc(Cn2cnc3c(NS(C)(=O)=O)c(C)c(C)cc32)cc1 | active: 3.16 µM
C/C(=N\NC(=O)c1cc2c(s1)CCC(C)C2)c1ccncc1 (stereo unspecified) | active: 25.1 µM
COc1cc(C(=O)NC2CCN(Cc3ccccc3)CC2)cc(Cl)c1OC(C)C | inconclusive [inhibitor, partial curve]
CC(NC(=S)NC1CCC(C(C)(C)C)CC1)c1ccccc1 (stereo unspecified) | inconclusive [inhibitor, single point]
CCc1ccc(NC(=O)CSc2nnc(CNC(=O)c3c(F)cccc3Cl)o2)cc1 | inconclusive [inhibitor, partial curve, poor fit]
CCCn1c(NC(=O)c2ccc(Cl)c(S(=O)(=O)N3CCCC3)c2)nc2ccccc21 | active: 2.51 µM
Cc1cccc(/C(N)=N/OC(=O)COc2ccc(Cl)cc2)c1 | inactive
